# T1: human NPRA (hNPRA) (Homo sapiens, UniProt P16066)
# T1 construct: expressed in transfected cells
# T1 sequence (P16066 33-1061): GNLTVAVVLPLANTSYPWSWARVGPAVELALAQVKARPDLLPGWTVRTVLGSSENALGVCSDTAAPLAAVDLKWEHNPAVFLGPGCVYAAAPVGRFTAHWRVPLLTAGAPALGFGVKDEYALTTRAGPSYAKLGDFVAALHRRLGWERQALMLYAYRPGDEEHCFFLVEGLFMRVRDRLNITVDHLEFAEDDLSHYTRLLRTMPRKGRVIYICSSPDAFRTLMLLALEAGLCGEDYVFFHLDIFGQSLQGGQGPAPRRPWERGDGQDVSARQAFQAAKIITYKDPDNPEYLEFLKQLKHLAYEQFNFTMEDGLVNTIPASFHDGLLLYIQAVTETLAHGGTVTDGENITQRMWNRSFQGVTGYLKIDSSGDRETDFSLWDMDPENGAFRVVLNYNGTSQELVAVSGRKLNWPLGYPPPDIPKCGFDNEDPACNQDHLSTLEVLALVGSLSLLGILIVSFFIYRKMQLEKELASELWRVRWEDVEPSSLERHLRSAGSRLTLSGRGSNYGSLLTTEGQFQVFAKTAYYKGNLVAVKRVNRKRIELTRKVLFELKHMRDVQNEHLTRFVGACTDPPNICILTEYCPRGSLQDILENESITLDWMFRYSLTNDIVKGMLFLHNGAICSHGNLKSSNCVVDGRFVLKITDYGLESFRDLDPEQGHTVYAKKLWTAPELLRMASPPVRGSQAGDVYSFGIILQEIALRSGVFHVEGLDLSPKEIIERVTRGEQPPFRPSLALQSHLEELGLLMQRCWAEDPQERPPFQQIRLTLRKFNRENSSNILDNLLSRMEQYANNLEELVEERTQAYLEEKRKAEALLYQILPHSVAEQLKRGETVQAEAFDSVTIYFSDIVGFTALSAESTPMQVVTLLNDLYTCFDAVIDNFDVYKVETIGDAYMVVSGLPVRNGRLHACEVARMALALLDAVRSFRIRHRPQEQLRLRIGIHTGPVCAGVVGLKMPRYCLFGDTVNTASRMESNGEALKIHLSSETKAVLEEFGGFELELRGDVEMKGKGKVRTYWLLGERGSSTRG
# B1: TPP-5657: empty antibody scaffold, negative control; SEQ ID NO 65 and SEQ ID NO 66 (antibody, listed as Homo sapiens)
# heavy: [here about 100 residues without letters]LTGAEYFQHWGQGTLVTVSS[here human IgG1 constant region without letters]
# light: QSVLTQPPSVSGAPGQRVTISCTGSSSNIGAGYDVHWYQQLPGTAPKLLIYGNSNRPSGVPDRFSGSKSGTSASLAITGLQAEDEADYYCQSYDSSLSGVVFGGGTKLTVLGQPKAAPSVTLFPPSSEELQANKATLVCLISDFYPGAVTVAWKADSSPVKAGVETTTPSKQSNNKYAASSYLSLTPEQWKSHRSYSCQVTHEGSTVEKTVAPTECS
# Molecular target: T1, human NPRA (hNPRA)
# Test: cGMP quantification (HTRF) on stable hNPRA-CHO k1 cells (res, ics, pcs samples)
# Assay type: cell-based
# Description: All activities shown in Tables 7 and 8 were measured on cells with heterologous over expression of human NPRA (hNPRA) by use of a cGMP quantification assay conducted according to manufacturer's instructions (cisbio; 62GM2PEH). In brief, the assay quantifies cGMP in buffered solution or cell-culture supernatants based on the competition between cGMP produced by the cell as result of the NPRA stimulation through the (natriuretic peptide) sample and d2 labelled cGMP for binding to a Cryptate labelled antibody. Sample cGMP and d2 labeled cGMP compete for binding to a limited number of sites on Cryptate labeled anti-cGMP antibodies, and consequently, HTRF® specific fluorescent signal (i.e. energy transfer) is inversely proportional to the concentration of cGMP in the sample.
# Dose-response curve data were analyzed with GraphPad Prism (version 7.00 for Windows, GraphPad Software, La Jolla California USA) and EC50 were fitted according to Y=Bottom+(Top−Bottom)/(1+10^((Log EC50−X)*HillSlope)) applying constraints for bottom, top and slope (shared value for all data sets of the respective experiment).
# The raw compound sample activity on stable hNPRA-CHO k1 cells was first assessed by comparison to the negative control TPP-5657 and to a positive sample, in particular TPP-5661. Controls and res were tested in quadruplets in two concentrations with a relative dilution factor of 5 aiming for a fluorescent signal (s) in the dynamic range of the assay. […] Values listed in Table 7, columns “activity res” and “stdev activity res”, represent the average of the results for the two concentrations and the respective standard deviation. Res signals less than half of the signal of the reference compound TPP-5661 (36%) were assessed as not active (n.a.).
# The activity of several raw compound samples on stable hNPRA-CHO k1 cells was reassessed by comparison to reference sample TPP-5661 in 2.5-fold dilution series (8 concentrations) starting with a 5-fold dilution. The “log EC50” fit value as activity measure of the res was set in relation to the corresponding value of the reference res TPP-5661 by calculating the delta “log EC50” _compound−“log EC50” _TPP-5661; resulting values are listed in Table 7, column “rel. activity res”. […] All samples were applied in quadruplets.
# The activity of isolated compound samples on stable hNPRA-CHO k1 cells was assessed by EC50 determination and comparison to reference sample TPP-5661. Samples were tested in 2.5-fold dilution series from 80 nM to 0.13 nM. The log EC50 fit value as activity measure of the ics was set in relation to the corresponding value of the reference ics TPP-5661 (−8.8) by calculating the delta log EC50_compound−log EC50_TPP-5661; resulting values are listed in Table 7, column “rel. log EC50 ics”. All samples were applied in quadruplets.
# The activity of purified compound samples on stable hNPRA-CHO k1 cells was assessed in multiple experiments by EC50 determination and comparison to reference sample TPP-5661. Samples were tested in dilution series at least in quadruplets. […] The log EC50 fit value as activity measure of the pcs was set in relation to the corresponding value of the reference TPP-5661 in the respective experiment (in average −9.2, standard deviation 0.5) by calculating the delta log EC50_compound−log EC50_TPP-5661.
# Compounds showing an activity in res without confirmation as ics or pcs are marked with an unified “y”, and compounds assessed as not active (“n.a.” in column “activity res”) probably due to their very low expression level (≤1 μg/ml, “n.e.” in column “μg/ml res”) are marked accordingly.
molecule,measurement,setting,value
B1,qualit. activity on hNPRA,"BNP engrafted constructs, purified compound samples, stable hNPRA-CHO k1 cells","− (EC50 values>50-fold of the reference compound TPP-5661, meaning average rel. log EC50>1.7, were qualitatively assessed as not active)"
same,qualit. activity,summarized qualitative assessment relative to TPP-5661,"− (EC50 values>50-fold of the reference compound TPP-5661, meaning average rel. log EC50>1.7, were qualitatively assessed as not active)"
same,qualit. activity of corresp. ANP cpd.,value of the ANP engrafted construct with same integration locus and N-/C-terminal sequence (named in Table 5),"− (EC50 values>50-fold of the reference compound TPP-5661, meaning average rel. log EC50>1.7, were qualitatively assessed as not active)"
